“And” between values parts separate entries of the source, which are not always exact repeats. Equal entries are not always repeated. Screen size: about 94,000 compounds; about 6,200 (6.6%) were called active. The inconclusive results got no clear call from the source; some entries with a clear call stand among them for comparison. Calls come from the whole dose curve; as a rule, active = well fitted inhibition curve with a large enough effect; inconclusive = small, poorly fitted or top-dose-only effect; inactive = flat fitted curve, though single readings scatter. A potency beside an inconclusive call is a rough fit, not a confirmed value.
assay: Cytotoxic Profiling in HEK 293 Cell Line of Diverse Libraries Using Quantitative High-Throughput Screening; conditions: HEK 293 viability, ATP luminescence (CellTiter-Glo), 48-72 h; activity change, negative = cytotoxicity: at 115 µM (top of the series) unless noted; series mostly up to 115 µM; note: nearly all actives have a fitted effect of over 60% in size
Outline: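 HEK 293 cells at 250 cells/well were exposed to compounds by pintool transfer for 48 or 72 hr at 37 degree Celsius, 5% CO2. Viability was read as ATP-coupled luminescence with CellTiter-Glo after 10 min at room temperature.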
% is set by controls: 0 for no effect and ±100 for the full control effect; potency is the fitted concentration of half-maximal effect; tags give direction and shape of the fitted curve.

| Structure (SMILES) | Potency | activity change, negative = cytotoxicity | outcome |
| --- | --- | --- | --- |
| O=C(NCc1ccccc1)N1CCC(c2nc(C3CCOCC3)no2)CC1 | inconclusive: 89.1 µM [inhibitor, single point] | – | – |
| COc1ccc(C(=O)NC2CCN(Cc3cccc(-c4cccs4)c3)CC2)cc1 | inconclusive: 11.2 µM [inhibitor, full curve, poor fit] and inconclusive: 12.6 µM [inhibitor, full curve, poor fit] | – | – |
| COc1ccccc1-c1cccc(C(=O)N2CCN(C(=O)c3ccc(Cl)cc3)CC2)c1 | inconclusive: 31.6 µM [inhibitor, partial curve, poor fit] | – | – |
| COc1ccc(-c2nccn2C2CCC(N)CC2)c(Cl)c1OC (stereo not given) | – | inactive: -0.352% | – |
| CCC(=O)N1CCc2c(C(=O)NCc3cc(OC)ccc3OC)cccc21 | inconclusive: 79.4 µM [inhibitor, single point] | – | – |
| CNC(=O)[C@H]1C[C@H](Oc2cccnc2)CN1C(=O)NCCc1ccccc1 | – | inactive: -7.31% | – |
| COC(=O)N1CCC(C(=O)N2CCCC(c3nc4ncccc4[nH]3)C2)CC1 (stereo not given) | – | inactive: -4.55% | – |
| COc1cccc(-c2c(C(=O)Nc3ccc(C)cc3)nc3sccn23)c1 | inconclusive: 100 µM [inhibitor, single point] | – | – |
| CN1[C@@H](CCC(=O)NCc2ccccc2)CNC(=O)[C@@H]2[C@H]1CCN2Cc1cccc(OC(F)(F)F)c1 | inconclusive: 79.4 µM [inhibitor, partial curve, poor fit] | – | – |
| Cc1ccc(CN2C(=O)COC[C@H]2C(=O)Nc2ccccc2F)cc1 | – | – | inactive |
| COc1ccc2c(c1)OC[C@@H]1CN(CCC#N)C(=O)CCN(C(=O)c3ccc(F)cc3)[C@H]21 | – | inactive: -24% | – |
| O=Cc1cccc(N2CCN([S+](=O)([O-])C3CC3)CC2=O)c1 | – | inactive: -20.9% | – |
| CCC(C(=O)N1CCC2(CC1)C(=O)N(CC(=O)NCCOC)CN2c1ccccc1)c1ccccc1 (stereo not given) | inconclusive: 56.2 µM [inhibitor, partial curve, poor fit] | – | – |
| COc1cccc(CN2CCn3c(nnc3[C@@H]3C[C@@H](O)CN3C)C2)c1OC | – | – | inactive |
| COc1ccccc1C(=O)N1CCC2(CC1)N(C)C(=O)CS2(=O)=O | – | inactive: -7.1% | – |
| Cc1nn(-c2ccccc2)c2c1C(C)N(C1CCCN(C(=O)c3ccc(Cl)nc3)C1)C2=O (stereo not given) | inconclusive: 50.1 µM [inhibitor, partial curve, poor fit] | – | – |
| C=CCNC(=O)Cc1ccc(N(Cc2ccc(C)cc2)C(=O)c2ccco2)cc1 | inconclusive: 79.4 µM [inhibitor, partial curve, poor fit] | – | – |
| CCCCc1ccc(-n2cc(CN3CCN(C(C)=O)CC(O)C3)cn2)cc1 (stereo not given) | inconclusive: 50.1 µM [inhibitor, partial curve, poor fit] | – | – |
| Clc1cc(NCC2CC2)n2nccc2n1 | inconclusive: 112 µM [inhibitor, partial curve] | – | – |
| COc1ccc(NC(=O)c2ccc3c(c2)C2(CCCN(C)C2)CN3C)cc1 (stereo not given) | inconclusive: 126 µM [inhibitor, partial curve, poor fit] | – | – |
| O=C(NCCC1CCN(C(=O)Nc2ccc(F)cc2)CC1)c1cc(F)ccc1F | – | inactive: -2.31% | – |
| CN(Cc1ccc(F)cc1)c1ccc2ncc(Nc3cccc(O)c3)n2n1 | active: 63.1 µM | – | – |

| Structure (SMILES) | Potency | activity change, negative = cytotoxicity | outcome |
| --- | --- | --- | --- |
| COc1ccc(Cn2c(C3CCN(C(=O)c4ccc(F)c(Cl)c4)CC3)n[nH]c2=O)cc1 | – | inactive: -0.154% | – |
| O=C(c1ccc(F)cc1)N1CCC(Cc2nc(-c3ccc(F)cc3)no2)CC1 | inconclusive: 10 µM [inhibitor, full curve, poor fit] | – | – |
| C[C@]1(CO)[C@H]2Cc3sc(NC(=O)c4ccc(F)cc4)nc3[C@@H](CC(=O)N3CCOCC3)[C@]2(C)CC[C@H]1O | – | inactive: -16.7% | – |
| CSCCNC(=O)C1CCCN1c1nccc(Nc2ccc(C)cc2)n1 (stereo not given) | active: 79.4 µM | – | – |
| Cc1nc2c(c(-c3ccc(O)cc3)n1)CN(C(=O)C(C)(C)C)CCC2 | inconclusive: 126 µM [inhibitor, single point] | – | – |
| CCc1noc(CC2CCOC3(CCN(S(=O)(=O)c4ccccc4Cl)CC3)C2)n1 (stereo not given) | inconclusive: 89.1 µM [inhibitor, single point] | – | – |
| O=C(c1cccc(O)c1)N1CC(CNc2ccccc2)C2(C1)CN(c1ccccc1)C2 (stereo not given) | active: 63.1 µM | – | – |
| CCN(Cc1ccccc1)C(=O)Cn1ccn2nc3c(c2c1=O)CCCC3 | inconclusive: 89.1 µM [inhibitor, single point] | – | – |
| COc1ccccc1NC(=O)Cn1c(-c2ccccc2)nc(C)c(CCO)c1=O | active: 35.5 µM | – | – |
| CCCc1noc(-c2ccn3c(CNC(=O)c4ccc(C)cc4C)nnc3c2)n1 | inconclusive: 89.1 µM [inhibitor, single point] | – | – |
| CNC(=O)CCn1ncc2cc(OCc3ccccc3-c3cc(F)ccc3OC(C)C)ccc21 | inconclusive: 50.1 µM [inhibitor, partial curve, poor fit] | – | – |
| O=C1c2c(nc(COc3ccccc3)n2Cc2ccccc2)NCCN1CC1CC1 | inconclusive: 39.8 µM [inhibitor, partial curve, poor fit] | – | – |
| COC(=O)CCNC(=O)C1c2ccccc2C(=O)N(C2CCCCC2)C12CCCCC2 (stereo not given) | inconclusive: 35.5 µM [inhibitor, partial curve] | – | – |
| COc1ccc(CN2C=C(C(=O)OCc3nc(-c4ccccc4F)no3)C(C)=NS2(=O)=O)cc1 | inconclusive: 25.1 µM [inhibitor, full curve] | – | – |
| COCCNC(=O)C1CCN(c2nccc(Nc3ccccc3Cl)n2)CC1 | inconclusive: 89.1 µM [inhibitor, single point] | – | – |
| Fc1ccc(CN2CCC(N3CC(OCC4CC4)C34CCOCC4)CC2)c(F)c1 (stereo not given) | inconclusive: 50.1 µM [inhibitor, partial curve, poor fit] | – | – |
| CC(C)N1CC[C@@H]2[C@H]1C(=O)NC[C@H](CCC(=O)NCc1ccc(F)cc1)N2C | – | inactive: -20.6% [at 172 µM] | – |
| O=C(c1ccc(F)cc1)N1CCn2c(nnc2-c2ccccc2)C1 | – | inactive: -9.13% [at 172 µM] | – |
| O=C1[C@H]2CN(Cc3ccc(Cl)c(F)c3)C[C@H]2C(=O)N1Cc1ccc2c(c1)OCO2 | inconclusive: 89.1 µM [inhibitor, single point] | – | – |
| COc1ccc(C)cc1NC(=O)Cn1c(-c2ccc(F)cc2)nc(C)c(CCO)c1=O | active: 79.4 µM | – | – |
| COCCNc1cc(-c2ccnc(SC)n2)c2cc[nH]c2n1 | inconclusive: 89.1 µM [inhibitor, single point] | – | – |
| O=C(NCc1cccnc1)c1cn2cc(-c3cccc(C(F)(F)F)c3)sc2n1 | active: 28.2 µM | – | – |

| Structure (SMILES) | Potency | activity change, negative = cytotoxicity | outcome |
| --- | --- | --- | --- |
| CCN1c2cc(C(=O)Nc3ccccc3)ccc2C(=O)N2CCCCCC21 (stereo not given) | active: 39.8 µM | – | – |
| COc1ccc(C(=O)N2CCN(C(=O)c3cccc(-c4ccccn4)c3)CC2)cc1 | inconclusive: 79.4 µM [inhibitor, partial curve, poor fit] | – | – |
| CCCN1CCC2(Cc3ccccc3CN([S+](=O)([O-])c3ccccc3)C2)C1 (stereo not given) | inconclusive: 50.1 µM [inhibitor, partial curve, poor fit] | – | – |
| COc1ccc(CC(=O)N2CCN(c3cc(-c4ccccc4)[nH]n3)CC2)cc1 | inconclusive: 31.6 µM [inhibitor, partial curve, poor fit] | – | – |
| O=Cc1cccc(-c2ccc(O)cc2)c1 | inconclusive: 126 µM [inhibitor, partial curve, poor fit] | – | – |
| CCOC(=O)[C@@H]1[C@@H](O)C(=O)N(Cc2ccccc2)C12CCN(C(=O)OCC(C)(C)C)CC2 | inconclusive: 89.1 µM [inhibitor, single point] | – | – |
| Cc1cccc(NC(=O)Cn2ccn3nc(-c4ccc(F)cc4)c(CO)c3c2=O)c1C | – | inactive: -26.9% | – |
| O=C(NCC1Cn2cccc2C(=O)N1Cc1ccccc1)C1CCOCC1 (stereo not given) | – | inactive: -8.85% | – |
| COc1ccc(C(=O)NC2CCCN(c3cc(-c4ccc(F)cc4)[nH]n3)C2)cc1 (stereo not given) | inconclusive: 50.1 µM [inhibitor, partial curve, poor fit] | – | – |
| CSc1nccc(N2CCC3(CC2)CC(=O)N(CC(C)C)C3)n1 | inconclusive: 10 µM [inhibitor, full curve, poor fit] | – | – |
| COc1cccc(N2CC(C(=O)NCCc3ccc(Cl)cc3)NC2=O)c1 (stereo not given) | – | inactive: -23.6% | – |
| CCN1C[C@H]2COc3cc(OC)ccc3[C@H]2N(C(=O)COc2ccccc2)CCC1=O | – | inactive: 1.91% | – |
| CC(NC(=O)c1ccc2nccn2c1)c1ccccc1-n1cccn1 (stereo not given) | inconclusive: 25.1 µM [inhibitor, full curve] | – | – |
| CC(=O)NC1(C)CCN(Cc2cccc(-c3ccc4ccccc4c3)c2)C1 (stereo not given) | active: 35.5 µM | – | – |
| CCC(CC)C(=O)N1C[C@@H](CO)[C@H](c2nc(-c3ccncc3)no2)C1 | – | inactive: 2.61% | – |
| Cc1cc(NC(=O)C(C)(C)Oc2nn(CC3CC3)c3ccc(CN4CCCC4)cc23)n(C)n1 | inconclusive: 89.1 µM [inhibitor, single point] | – | – |
| COc1ccc(CN2CCOc3nc(-c4ccc(O)c(F)c4)ncc3C2=O)cc1 | inconclusive: 126 µM [inhibitor, single point] | – | – |
| N#Cc1ccccc1S(=O)(=O)N[C@H]1CO[C@H]2[C@@H]1OC[C@@H]2n1nnnc1-c1ccccc1 | – | inactive: 3.65% | – |
| CC1(C)C(=O)N(Cc2ccccc2)[C@H]2CN(Cc3cccc(OC(F)(F)F)c3)C[C@@H]2[S+]1(=O)[O-] | inconclusive: 56.2 µM [inhibitor, partial curve, poor fit] | – | – |
| Cc1cnc(C2CC2)n1C1CCCN(C(=O)c2nn(C)c3ccccc23)C1 (stereo not given) | inconclusive: 89.1 µM [inhibitor, single point] | – | – |
| C#CCNC(=O)c1nc(-c2cccc(C(F)(F)F)c2)c2cnccn12 | inconclusive: 44.7 µM [inhibitor, full curve, poor fit] | – | – |
